Measurements as given in paper PMC4336329 (PLoS ONE, 2015).
The whole screen tested about 310,000 compounds, of which about 14,000 (4.5%) showed an effect of 50% or more. Effects have a minus sign here. The list shows a part of the results.

Biological target: human ether-à-go-go-related gene (hERG) potassium channel (human, UniProt Q12809)
Test: primary screen, population patch clamp on CHO cells stably expressing hERG
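Note: peak tail current of the secondary pulse compared with the same well before compound.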

Sequence of human ether-à-go-go-related gene (hERG) potassium channel (Q12809 whole entry, looked up): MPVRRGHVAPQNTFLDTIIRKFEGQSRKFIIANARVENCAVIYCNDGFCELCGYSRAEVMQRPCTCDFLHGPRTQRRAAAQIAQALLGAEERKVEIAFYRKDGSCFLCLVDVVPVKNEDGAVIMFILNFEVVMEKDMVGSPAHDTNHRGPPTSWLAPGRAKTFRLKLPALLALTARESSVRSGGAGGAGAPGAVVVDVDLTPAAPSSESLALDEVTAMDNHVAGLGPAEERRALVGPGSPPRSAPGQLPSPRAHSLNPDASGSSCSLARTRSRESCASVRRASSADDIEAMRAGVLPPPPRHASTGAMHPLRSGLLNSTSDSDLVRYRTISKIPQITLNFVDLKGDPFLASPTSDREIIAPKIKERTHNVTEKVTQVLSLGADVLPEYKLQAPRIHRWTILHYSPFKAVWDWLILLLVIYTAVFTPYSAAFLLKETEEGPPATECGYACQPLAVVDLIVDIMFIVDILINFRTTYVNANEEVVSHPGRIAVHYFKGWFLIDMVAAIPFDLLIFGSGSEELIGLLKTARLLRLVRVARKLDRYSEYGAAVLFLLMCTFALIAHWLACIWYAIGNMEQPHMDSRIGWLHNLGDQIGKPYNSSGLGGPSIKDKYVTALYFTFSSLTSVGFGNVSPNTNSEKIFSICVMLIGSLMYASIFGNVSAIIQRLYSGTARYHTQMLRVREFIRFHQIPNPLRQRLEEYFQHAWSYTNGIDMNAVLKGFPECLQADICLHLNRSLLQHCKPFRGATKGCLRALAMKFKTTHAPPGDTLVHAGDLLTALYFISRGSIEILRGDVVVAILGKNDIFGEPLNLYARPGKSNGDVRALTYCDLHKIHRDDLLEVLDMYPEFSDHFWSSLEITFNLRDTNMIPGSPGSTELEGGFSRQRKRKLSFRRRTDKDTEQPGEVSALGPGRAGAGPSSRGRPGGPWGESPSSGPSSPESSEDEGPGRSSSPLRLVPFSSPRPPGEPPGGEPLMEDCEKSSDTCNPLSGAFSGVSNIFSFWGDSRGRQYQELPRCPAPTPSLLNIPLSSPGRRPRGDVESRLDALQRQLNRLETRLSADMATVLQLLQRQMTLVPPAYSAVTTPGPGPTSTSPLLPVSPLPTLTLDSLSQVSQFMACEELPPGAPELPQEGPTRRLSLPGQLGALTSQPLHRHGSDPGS

| Structure (SMILES) | hERG current change (%, negative = inhibition) at 10uM |
| --- | --- |
| CC1(C(=O)NC2CCCC2)CCC(=O)N1Cc1ccccc1Cl (stereo not shown) | 1.96% |
| CCOc1ccc(NC(=O)c2ccc(NC(=O)CSc3nc4ccccc4c(=O)[nH]3)cc2)cc1 | 14.7% |
| COCC(C)n1c(SCC(=O)NNC(=O)c2ccccc2)nc2ccccc2c1=O (stereo not shown) | 5.92% |
| CC(C)(C)c1nnc2sc(SCC(=O)c3cccs3)nn2c1=O | -17.2% |
| CC(C)CCNC(=O)CCCn1c(=O)[nH]c2ccc(Br)cc2c1=O | 6.03% |
| O=C(CSc1nnc(NC(=O)c2ccccc2)s1)NCC1CCCO1 (stereo not shown) | 6.73% |
| Fc1cccc2sc(N3CCCC3)nc12 | -7.3% |
| COCCCn1c(N)c(-c2nc3ccccc3n2C)c2nc3ccccc3nc21 | -30.9% |
| Cc1ccc(C)c(NC(=O)COc2cccc3c2CCN(Cc2ccccc2)C3=O)c1 | -10.1% |
| CCOc1ccc(N(CC(=O)Nc2c(C)cccc2C)S(=O)(=O)c2c(C)[nH]c(=O)[nH]c2=O)cc1 | 8.2% |
| NC(=O)C1CCN(S(=O)(=O)c2ccc3c(c2)OCCO3)CC1 | 3.65% |
| CC(C)c1ccc(/C=C/C2=NNC(=O)CC2)cc1 | -19.2% |
| COc1cccc(CNc2ncn[nH]2)c1OCc1ccccc1F | 4.37% |
| COc1ccc(S(=O)(=O)N2CCC3(CC2)OCCO3)cc1 | -1.84% |
| CCN(Cc1ccc(N(C)C)cc1)C(C)C(=O)Nc1ccc(S(=O)(=O)N2CCCC2)cc1 (stereo not shown) | 6.37% |
| CN1CCC(=NNC(=O)C(=O)Nc2ccccc2F)CC1 | 9.4% |
| Cc1ccc(NC(=O)COC(=O)CNC(=O)C2CCCCC2)c(Br)c1 | 20% |
| CC1(C)C(CSc2nc3ccccc3[nH]2)C1(Cl)Cl (stereo not shown) | -15.2% |
| O=C(Nc1ccccc1)N1CCN(C(=O)Nc2ccccc2)CC1 | 1.5% |
| Cc1ccc(-c2c[nH]c(=S)n2-c2ccccc2F)cc1 | 5.84% |
| O=C(OCCNC(=O)c1cc2ccccc2oc1=O)c1cccnc1 | -13.7% |
| O=C(Nc1cccc(F)c1)C1CCN(C(=O)NCc2ccccc2)CC1 | -2.77% |

| Structure (SMILES) | hERG current change (%, negative = inhibition) at 10uM |
| --- | --- |
| CN(CC(=O)N1CCN(c2cccc(Cl)c2)CC1)S(=O)(=O)c1cnc[nH]1 | -11.6% |
| N/C(=N\OC(=O)C12CC3CC(CC(C3)C1)C2)c1ccccc1 | -11.1% |
| CCOC(=O)CSc1nc(C2CC2)cc(-c2ccc(F)cc2)c1C#N | 7.37% |
| COc1cc(-n2nnnc2SC)c(OC)cc1Cl | 28.7% |
| O=C(c1cc2cc(F)ccc2[nH]1)N1CCN(c2cccc(Cl)c2)CC1 | 13.5% |
| Cc1ccc(Cl)cc1NC(=S)N(Cc1ccccc1)Cc1cccnc1 | -22.8% |
| O=C(O)CSc1nc(C(F)(F)F)cc(=O)n1-c1ccccc1 | 7.51% |
| O=C(COC(=O)CC12CC3CC(CC(Br)(C3)C1)C2)NC(=O)NCc1ccco1 | 12.1% |
| Cc1ccc(NC(=O)COC(=O)CCn2c(C)csc2=O)cc1S(=O)(=O)N1CCOCC1 | -18.3% |
| Cc1nnc(N/N=C/c2ccc(Br)cc2)n1N.Cl | -16% |
| NC(Cc1ccc(O)c([N+](=O)[O-])c1)C(=O)O (stereo not shown) | 15.2% |
| COc1ccc(CCNC(=O)c2ccc3nc(N4CCOCC4)sc3c2)cc1OC | -10.6% |
| CC(C)Cc1c(O)nc(SCCN2CCOCC2)[nH]c1=O.Cl | 31.9% |
| O=C(O)/C=C/C(=O)Nc1ccc(Oc2ccccc2)cc1 | 15.8% |
| Cc1ccc(C(=O)N/C(=C/c2ccco2)C(=O)NCCCn2ccnc2)cc1 | -64.7% |
| COc1ccc(-n2c(SCC(=O)Nc3ccccc3)nnc2-c2ccc(NS(=O)(=O)c3ccc(C)cc3)cc2)cc1 | 3.59% |
| CCOC(=O)CSc1nc2c(sc3ccccc32)c(=O)n1CCCN1CCOCC1 | -65.9% |
| COc1cc2c(cc1OC)-c1cc3ccc4c(c3c[n+]1CC2)OCO4 | 12.6% |
| Cc1ccccc1Nc1nnc(SCC(=O)c2c(N)n(C)c(=O)n(C)c2=O)s1 | 5.14% |
| N#C/C(=C\Nc1ccc2c(c1)OCCO2)C(=O)NCc1ccco1 | -19.1% |
| OCCCc1nc2n(n1)C(c1cccs1)C=C(c1ccc(Br)cc1)N2 (stereo not shown) | -26.1% |
| C[C@H](NC(=O)c1nc[nH]c1C(=O)N1CCN(C(=O)OC(C)(C)C)CC1)c1ccccc1 | 12.4% |

| Structure (SMILES) | hERG current change (%, negative = inhibition) at 10uM |
| --- | --- |
| CC1CN(C(=O)CNC(=O)Cc2cccc3ccccc23)CC(C)O1 (stereo not shown) | -0.664% |
| CCSC1=NCCN1C(=O)c1ccc(S(=O)(=O)N(CC)CC)cc1 | 1.36% |
| CN(CC(=O)Nc1ccc(F)cc1)C(=O)Cn1cnc2ccc(Cl)cc2c1=O | -7.87% |
| CCCCNC(=O)c1cccc(C(=O)NCCCC)c1 | -6.79% |
| COc1ccc(-n2c(SCc3ccccn3)nc3c(c2=O)SCC3)cc1OC | -2.16% |
| CCOCCc1nn2c(=O)cc(CSCC(=O)Nc3cccc(C)c3C)nc2s1 | 2.23% |
| CCOC(=O)c1c(C)[nH]c(C(=O)COC(=O)c2ccc(N3CCCC3=O)cc2)c1C | 4.32% |
| COc1ccc([C@@H]2[C@@H]3C(=O)N(C(C)(C)C)C(=O)[C@@H]3[C@]3(Cc4ccccc4)C(=O)N(c4ccc(C)cc4)C(=O)N23)cc1 | 2.04% |
| O=C(CCn1c(=O)oc2ccc(Cl)cc21)N1CCN(c2ccccc2)CC1 | -33.8% |
| CN(CC(=O)Nc1ccc(F)cc1)C(=O)COc1ccccc1Cc1ccccc1 | -4.17% |
| O=C1c2ccccc2C(Nc2cccc(C(F)(F)F)c2)N1Cc1ccco1 (stereo not shown) | 6.63% |
| CCOC(=O)CC(NC(=O)Cc1ccc(F)cc1)c1ccccc1Cl (stereo not shown) | -1.39% |
| CCCc1nc(Nc2nc3ccccc3o2)nc(C)c1C(=O)OCC | -18.3% |
| CCOC(=O)CSc1nncc2ccc(OC)c(OC)c12 | 8.51% |
| CCN1CCN(c2ccc(S(=O)(=O)N3CCOCC3)cc2NC(=O)c2ccccc2OC(F)F)CC1 | -42.5% |
| Cc1c(C(=O)O)oc2ccc(S(=O)(=O)NCCC3=CCCCC3)cc12 | 0.629% |
| CSc1nnc([C@@H](NC(=O)OC(C)(C)C)C(C)C)o1 | -13.6% |
| CCOC(=O)CSc1nc2sc3c(c2c(=O)n1CC)CC(C)(C)OC3 | -23.4% |
| C/C(=N/NC(=O)c1ccco1)c1ccc(Br)s1 | 8.28% |
| Cc1csc(NC(=O)Cc2ccccc2[N+](=O)[O-])n1 | 8.85% |
| CCn1c(SCC(=O)Nc2nnc(C)s2)nnc1C(C)NC(=O)c1ccccc1 (stereo not shown) | 5.07% |
| Cc1ccc(C(=O)c2cc3c(cc2[N+](=O)[O-])OCCO3)cc1 | -9.5% |

| Structure (SMILES) | hERG current change (%, negative = inhibition) at 10uM |
| --- | --- |
| c1cc2[nH]snc2c2nc(C3CC3)nc12 | -29.3% |
| CC(=O)c1ccc(NCC(=O)N2CCN(S(=O)(=O)c3ccccc3)CC2)cc1 | -5.61% |
| CCc1ccccc1NC(=O)Nc1cccn(Cc2ccc(F)cc2)c1=O | 0.961% |
| CCc1ccc(Nc2ncc3c(n2)CC(c2ccco2)CC3=O)cc1 (stereo not shown) | -6.37% |
| Nc1nonc1C(=O)N/N=C/c1cccc([N+](=O)[O-])c1 | -13.7% |
| Cc1cc(C)cc(N(CC(=O)Nc2ccc(-c3nc4ccc(C)cc4s3)cc2)S(C)(=O)=O)c1 | -4.51% |
| Cc1cc(C)c2cc(C=O)c(Cl)nc2c1 | 6.24% |
| CCc1ccc2c(c1)C(c1ccc(N3CCOCC3)cc1)=NNC(c1ccncc1)=N2 | 12.7% |
| COC(=O)c1c(C)oc(C)c1S(=O)(=O)N1CCCC1 | -0.15% |
| CC1=C/C(=N\OS(=O)(=O)c2ccccc2)C(C)=CC1=O | -9.37% |
| COC(=O)C(C)NC(=O)C12CC3CC(CC(C3)C1)C2 (stereo not shown) | 18.2% |
| CNc1ccc(Br)cc(C(=O)/C=C/c2ccc(OC)cc2)c1=O | 4.96% |
| CC1=CC(C)C(C(=O)O)C(C(=O)Nc2cccnc2)C1 (stereo not shown) | 28.7% |
| CN(c1ccccc1)c1nc(N)c([N+](=O)[O-])c(NCCO)n1 | 11% |
| CCc1ccc(NC(=O)CC2C(=O)NCCN2C(=O)c2ccc(F)cc2)cc1 (stereo not shown) | -55.4% |
| CCC(C)NC(=O)C1CCN(S(=O)(=O)c2ccc(-n3cnnn3)cc2)CC1 (stereo not shown) | 3.26% |
| O=C(O)C(=O)O.O=[N+]([O-])c1ccccc1S(=O)(=O)N1CCN(CC2CC3C=CC2C3)CC1 (stereo not shown) | -12.1% |
| c1ccc(-c2nnc(OCCN3CCOCC3)c3ccccc23)cc1 | 7.56% |
| NC(=O)CC1C(=O)N(c2ccc(Cl)cc2)C(=S)N1NC(=O)c1cccc(F)c1 (stereo not shown) | 15.3% |
| CN(Cc1ccc(F)cc1)C(=O)c1cccc(S(=O)(=O)N2CCN(c3ccccc3)CC2)c1 | -19.9% |
| COC(=O)C(C)N1C(=O)S/C(=C/c2cc(C)n(-c3ccccn3)c2C)C1=O (stereo not shown) | -11.5% |
| CCCCC(C(=O)NC1CCCC1)N(C(=O)c1snc(C(N)=O)c1N)c1ccc(OCC)cc1 (stereo not shown) | 18.3% |
